Results taken from the supplement of paper PMC11417369.
Some of the results follow.

Tested on: PfSIP2 AP2 domain 1 (GST-tagged)
Experiment: gcPBM binding intensity (ln(normalized median fluorescence intensity)); higher = stronger DNA binding
In short: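 GST-fused DNA-binding domains of P. falciparum, expressed in E. coli, were applied at about 25 μg on average for 1 h to an Agilent 4 × 180k array of primer-extended double-stranded 36-bp intergenic genomic probes and negative controls. Binding intensity is the highest Masliner-normalised natural-log median intensity across replicate spots of either probe orientation, measured with Alexa488 anti-GST antibody and a 488 nm scan.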

Sequence	gcPBM binding intensity (ln)
TATTTATTGTGATACTTATATTACTTAATGATTAAA [CACACA_negctrl_site676]	6.87
TAATTATGCAGACACACACACACACCCAACTAAAAA [CACACA_site2569]	7.27
CTATTTCATGGACACACACACACAAACAAACATATA [CACACA_site4696]	7.6
ATATATTATATAAAGTGTACAAAAAAAATATATAAA [XGTACX_site8065]	7.12
ATTAATAAGAAATATACACACATGGATAAATACATA [CACACA_site1872]	6.81
TTTCTTGCTACATGAAGTACACTTTCTATGACTCGT [XGTACX_site5583]	7.07
ATATATATTTTATTCACACATAAGATTATAAAACAT [CACACA_site5369]	7.02
TATGATATAATTATGTGTACACAATTTTTTTTTTTT [XGTACX_site1084]	7.48
TGTGTTCAGTATTGCACACACACAACAAAATAAAAA [CACACA_site8017]	7.32
AATTTTAAGAGCTATACATGCACTTCATAAAAAGTG [TGCATGCA_site180]	8.45
ATAATAAAAAAAAATGCACACATATATATATATATA [CACACA_site8766]	9.29
AATATATATATATATACACACACACCGATATATATA [CACACA_site8158]	7.64
TAACAATTAATAAAAGGTACACTTGAATATGCACCA [XGTACX_site2717]	10.5
TTAATATTTAGACATGCATGCTAATTACTATATATA [TGCATGCA_site27]	6.96
TTATAAATATAAAAATGTACAGAAAAAAAAAATAAA [XGTACX_site863]	7.15
ATAGAACTATATTGCACACATAATATATATATATAT [CACACA_site3189]	9.35
GTAAAAAATATGACAAGTACAAGAAAAGAAAAAAGT [XGTACX_site7906]	7.61
AAAAGATTTATACATACACACATATTATATTCACAT [CACACA_site3713]	7.02
TTATAATATATATACAGTACATATATAAAATAATAT [XGTACX_site5917]	7.01
TTTTCTTGGTTCAGTGTGCACTTATATATATATATA	9.93
TAATATAAAGAAAAGGAACACACAAATATATATATA [CACACA_site8049]	8.72
TTATTTTATAATAAAAGTACACAAAAAAAAAAAAAA [XGTACX_site7668]	7.03
ATATATATAATATGCGGTACACATTAATTAAATCAT [XGTACX_site5702]	7.81
TTATTTCTCTTTTCAGTGCATTTTATAACAAAAAAA [GTGCAC_site9930]	8.96
GTAGAGCATAATAAAACACACACATACATACATATA [CACACA_site8217]	7.32
